PubChem BioAssay AID1347417 (National Center for Advancing Translational Sciences (NCATS), 2020)
The campaign covered roughly 120,000 compounds. About 5,300 (4.4%) were called active. This list was built around the results that the source calls inconclusive (neither active nor inactive); the mix of calls is not that of the screen. The call rests on the fitted dose curve; in most records, active means well fitted inhibition curve with a large enough effect; inconclusive means small, poorly fitted or top-dose-only effect; inactive means no such curve, though single readings can be large or run the other way. Potencies beside an inconclusive call are fits to weak or partial responses and may not hold up.
Potency means the concentration at half of the fitted maximal effect; tags describe the fitted curve by direction and shape.

Assay: qHTS Primary assay for Inhibitors of Plasmodium falciparum Dd2 growth in vitro; further: nearly all actives have a fitted effect of over 65% in size
Settings: P. falciparum Dd2 growth, SYBR Green, 72 h; series mostly up to 28.9 µM
How it was run: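 Readout: SYBR Green fluorescence, 485 nm excitation, 535 nm emission, after ~16 h lysis at 37C. Before that, Dd2-infected red cells (2.5% hematocrit) grew 72 h with compound, 29 uM top final concentration.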
For `O=S1(=O)c2ccccc2N(Cc2ccc(Cl)cc2)c2ccccc21`, the Potency was inconclusive: 7.94 µM [inhibitor, single point]. In the case of `CCOc1ccc(-c2cc3c(=O)n(CCNC(=O)c4cccc(N(C)C)c4)ccn3n2)cc1`, the Potency is reported as inconclusive: 1 µM [inhibitor, partial curve]. In the case of `COc1ccc2c(c1)c(=O)c(C(=O)c1ccc(F)cc1)cn2CC(=O)Nc1ccc2c(c1)OCO2`, the Potency is reported as inconclusive: 17.8 µM [inhibitor, single point]. With `O=C(NCc1cccnc1Oc1ccc(F)c(F)c1)C1(Cn2cccn2)CC1` the Potency was “inactive”. In the case of `O=C1CC(C(=O)O)C2(CCN(c3ncc(C(=O)O)cc3Cl)CC2)N1` (configuration not stated), the Potency is reported as “inactive”. In the case of `CCCCOc1ccc(Cn2c(=O)oc3ccc(C)cc32)cc1OC`, the Potency is reported as inconclusive: 17.8 µM [inhibitor, single point]. For `Clc1ccccc1C1(c2ccnc(NC3CCC3)n2)CCNCC1`, the Potency was active: 7.08 µM. In the case of `Cc1ncoc1C(=O)N1CCC(C2CCN(S(C)(=O)=O)CC2)C1` (configuration not stated), the Potency is reported as “inactive”. With `CC(C)OCCCNc1nc2c([S+](=O)([O-])c3ccncc3)nnn2c2ccccc12` the Potency was inconclusive: 5.01 µM [inhibitor, partial curve, poor fit]. With `Cc1cc(C)c(NC(=O)Cn2nnc(S(=O)(=O)c3ccc(C)c(C)c3)c2N)c(C)c1` the Potency was “inactive”. For `CC(C)c1ccc(NC(=O)N2c3ccccc3Sc3ccccc32)cc1`, the Potency was inconclusive: 10 µM [inhibitor, partial curve, poor fit]. With `O=C(CC(c1ccccc1)c1ccccc1F)N1CCSCC1` (configuration not stated) the Potency was “inactive”. In the case of `CC1CCN(CC2CCCN(C(=O)C3(c4ccccc4)CC3)CC2)CC1` (configuration not stated), the Potency is reported as inconclusive: 20 µM [inhibitor, partial curve, poor fit]. For `COc1ccccc1-c1cccc(CN)c1`, the Potency was inconclusive: 17.8 µM [inhibitor, partial curve, poor fit]. In the case of `CCN(Cc1ccccc1)Cc1c(O)ccc2oc(C)c(C(=O)Nc3ccc(C)cc3C)c12`, the Potency is reported as inconclusive: 1 µM [inhibitor, partial curve, poor fit]. For `CCOc1ccccc1CN1CC[C@H](CNC(C)=O)[C@H](N(C)C)C1`, the Potency was inconclusive: 12.6 µM [inhibitor, single point]. With `C=Cc1ccc(Cn2c(=O)n(-c3cccc(Cl)c3)c(=O)c3c4c(sc32)CN(C(C)=O)CC4)cc1` the Potency was inconclusive: 12.6 µM [inhibitor, single point]. For `O=C(NCCc1ccc(Cl)cc1)c1ccc2c(c1)N(Cc1ccc(Cl)cc1)C(=O)CS2`, the Potency was “inactive”. In the case of `CC(=O)N1CCC(Cc2ncc(C)n2CC2CC2)C1` (configuration not stated), the Potency is reported as inconclusive: 0.251 µM [inhibitor, full curve, poor fit]. For `Cc1nc(-c2cccc(Cl)c2)n(CC(=O)Nc2ccccc2F)c(=O)c1CCO`, the Potency was “inactive”. For `Cc1noc(C)c1-c1cc2c(cc(C)n2CCN(C)C)c(-c2ccccc2O)n1`, the Potency was inconclusive: 2.82 µM [inhibitor, partial curve, poor fit]. For `COCCOc1ccc2c(n1)CCN(C(=O)Cc1ccc(F)cc1)C2`, the Potency was inconclusive: 20 µM [inhibitor, single point]. With `COc1cccc(S(=O)(=O)N2CCCC(Cc3noc(-c4cnccn4)n3)C2)c1` (configuration not stated) the Potency was inconclusive: 7.94 µM [inhibitor, partial curve]. With `O=C(NCCC1=CCCCC1)C1CCN(C(=O)c2ncn3c2COC(c2ccccc2)C3)CC1` (configuration not stated) the Potency was inconclusive: 0.708 µM [inhibitor, full curve]. For `COc1ccc(NC(=O)O[C@@H]2CC[C@]3(C)C(CC[C@H]4OC(=O)C[C@H]43)[C@]2(C)CO)cc1` (some centres not stated), the Potency was inconclusive: 11.2 µM [inhibitor, single point]. For `O=C(Cn1nc2n(c1=O)CCCCC2)Nc1ccc(F)cc1`, the Potency was “inactive”. For `Cc1cccc(C)c1-n1ncc(C(=O)NC2CCCC2)c1C1CCN(C(=O)OC(C)(C)C)CC1`, the Potency was inconclusive: 10 µM [inhibitor, single point]. With `Cc1c(C(=O)OC2CCCCCC2)[nH]c2c1C(=O)CC(c1ccc(Cl)cc1)C2` (configuration not stated) the Potency was “inactive”. With `COc1cccc(C(=O)N2CCC3(CC2)OCC(C(=O)N2CCCC2)N3C(=O)c2ccccc2)c1` (configuration not stated) the Potency was inconclusive: 3.98 µM [inhibitor, full curve, poor fit]. For `Cc1noc2c(NCc3cnccn3)cc(-c3ccccc3)nc12`, the Potency was inconclusive: 31.6 µM [inhibitor, single point]. With `O=C(Nc1ccc(F)cc1)N1CCOc2ccc(CN3CCc4ccccc4C3)cc2C1` the Potency was inconclusive: 0.794 µM [inhibitor, full curve, poor fit]. With `OC[C@H]1C[C@@H](NCc2ccc(F)cc2)[C@H](O)[C@@H]1O` the Potency was inconclusive: 3.16 µM [inhibitor, full curve, poor fit]. In the case of `COc1ncccc1-c1n[nH]c2c1CC(=O)N(c1ccccc1)C2`, the Potency is reported as inconclusive: 5.01 µM [inhibitor, full curve, poor fit]. For `COc1ccc(Nc2c(-c3ccc(C)o3)nc3cc(C)ccn23)cc1`, the Potency was inconclusive: 17.8 µM [inhibitor, single point]. With `Cc1cc(C)cc(NC(=O)Cn2cc(C(=O)c3cccs3)c3ccccc32)c1` the Potency was inconclusive: 17.8 µM [inhibitor, single point]. For `Cc1ccc2[nH]c3c(=O)n(CC(=O)N(CCN(C)C)Cc4ccccc4)ncc3c2c1`, the Potency was inconclusive: 10 µM [inhibitor, single point]. In the case of `COc1cccc(C(=O)NC2CCc3nnc(C4CC4)n3CC2)c1C` (configuration not stated), the Potency is reported as “inactive”. For `O=C(NCc1cccnc1)c1nc(-c2cccc(C(F)(F)F)c2)c2ccccn12`, the Potency was active: 7.94 µM. In the case of `COc1ccccc1-c1cc(C(=O)N2CCOCC2)c2cnn(C)c2n1`, the Potency is reported as “inactive”. With `COc1ccc(C(=O)N2C[C@@H](Oc3ccccc3)C[C@H]2C(=O)N2CCCC2)c(OC)c1` the Potency was “inactive”. With `COc1ccc(-c2nc3c(c(=O)[nH]2)CCN(S(=O)(=O)c2cccs2)C3)cc1` the Potency was “inactive”. For `CCc1ccc(NC(=O)C(CC)n2c(=O)c(-c3ccccc3NC(C)=O)nc3ccccc32)cc1` (configuration not stated), the Potency was inconclusive: 10 µM [inhibitor, single point].
